Laboratory results reported in PubChem BioAssay AID485281 (National Center for Advancing Translational Sciences (NCATS), 2010).
Hit rate of the full screen: of about 350,000 compounds, about 260 (0.074%) were called active. The shares of active, inactive and inconclusive entries below differ from those in the screen. Calls come from the whole dose curve; as a rule, active = well fitted inhibition curve with a large enough effect; inconclusive = small, poorly fitted or top-dose-only effect; inactive = no such curve, though single readings can be large or run the other way. Where the call is inconclusive, the potency comes from a doubtful curve fit.

Each compound was assayed against Ferritin light chain (Equus caballus) (UniProt P02791) (assay: qHTS Assay for Identification of Novel General Anesthetics). Details: apoferritin/1-aminoanthracene competitive binding, fluorescence; series mostly up to 77.5 µM.
UniProt P02791, sequence (P02791 whole entry, looked up): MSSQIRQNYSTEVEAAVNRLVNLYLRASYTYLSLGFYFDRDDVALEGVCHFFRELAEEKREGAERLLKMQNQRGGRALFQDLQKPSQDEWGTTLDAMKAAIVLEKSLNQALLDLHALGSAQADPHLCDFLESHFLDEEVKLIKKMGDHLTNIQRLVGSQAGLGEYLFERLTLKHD
Procedure, shortened: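 Concentration-response curves derived by four-parameter Hill fitting of normalized fluorescence, where compounds displaced 1-AMA from 10 uM horse apoferritin following a brief 10 min room-temperature incubation; propofol titration acted as positive control.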
Note: nearly all actives have a fitted effect of over 20% in size.
Potency is the fitted concentration of half-maximal effect; tags give direction and shape of the fitted curve.

| Structure (SMILES) | Potency |
| --- | --- |
| O=C(COC(=O)CSc1cccc2cccc(Cl)c12)Nc1ncc(C(F)(F)F)cc1Cl | inconclusive: 11.2 µM [inhibitor, partial curve] |
| COc1ccc(C2C3=C(CC(C)(C)CC3=O)Oc3ncn(Cc4ccco4)c(=N)c32)cc1 (stereo not given) | inconclusive: 31.6 µM [inhibitor, partial curve] |
| CCOC(=O)CN1C(=O)S/C(=C/c2ccc(N3CCCCC3)o2)C1=O | inactive |
| COc1ccc(S(=O)(=O)N(Cc2nc(-c3cccc(C)c3)no2)C2CCCCC2)cc1 | inactive |
| O=C(NCC12CC3CC(CC(C3)C1)C2)c1cc2n(n1)C(C(F)(F)F)CC(c1ccco1)N2 (stereo not given) | inconclusive: 12.6 µM [inhibitor, partial curve] |
| FC(F)(F)c1cccc(NC(=S)NNC(=S)Nc2cccc(C(F)(F)F)c2)c1 | inconclusive: 31.6 µM [inhibitor, partial curve] |
| CC(C)COC(=O)C(N)C(C(=O)OCC(C)C)c1ccccc1 (stereo not given) | inconclusive: 39.8 µM [inhibitor, single point] |
| O=NN(CCc1ccncc1)c1ccc(OCc2ccccc2)cc1 | inconclusive: 39.8 µM [inhibitor, partial curve] |
| O=C1C(=O)N(Cc2ccccc2)C(=O)N1CCOc1ccccc1 | inconclusive: 28.2 µM [inhibitor, partial curve] |
| COC(=O)c1c(-c2ccc(C)cc2)csc1NC(=O)C1CC=CCC1C(=O)O (stereo not given) | inactive |
| CCN(CC)c1ccc(C2C3CCCCC3(O)CCN2C(=O)c2cccs2)cc1 (stereo not given) | inconclusive: 31.6 µM [inhibitor, partial curve] |
| CCOC(=O)c1sc(C)c2c(=O)n(Cc3ccc(Cl)cc3)c(C)nc12 | inconclusive: 31.6 µM [inhibitor, partial curve] |
| Clc1ccccc1C1SCC2Nc3ccccc3CN21 (stereo not given) | inconclusive: 50.1 µM [inhibitor, single point] |
| CC12CCCC(O)(C1)C1CC(C)(C)C1CC2 (stereo not given) | inconclusive: 35.5 µM [inhibitor, single point] |
| Cc1ccc(C(=O)NC23CC4CC(CC(C4)C2)C3)c(Cl)c1 | inconclusive: 17.8 µM [inhibitor, partial curve] |
| Cc1ccc2nc(Cl)c3cc(C(=O)N(C)C4CCCCC4)sc3c2c1 | inconclusive: 22.4 µM [inhibitor, partial curve] |
| Cc1c(Cl)cccc1NC(=O)c1nc(C)n(-c2cc(OC(C)C)c(Cl)cc2Cl)n1 | inconclusive: 14.1 µM [inhibitor, partial curve] |
| Cc1ccc(-n2ncc3c(NCc4ccc5c(c4)OCO5)ncnc32)c(C)c1 | inconclusive: 7.94 µM [inhibitor, partial curve] |
| COc1ccc(/C=N/NC(=O)C(=O)/C=C2\NC3(CCCC3)Cc3ccccc32)cc1 | inactive |
| COC(=O)CN1C(=O)S/C(=C/c2cc(C)n(C)c2C)C1=O | inconclusive: 17.8 µM [inhibitor, partial curve] |
| CCN(Cc1cc2ccccc2[nH]c1=O)C(=O)C(C)C | inconclusive: 15.8 µM [inhibitor, partial curve] |
| O=c1c2ccccc2nc(-c2ccccc2)n1Cc1ccc(Cl)cc1 | inconclusive: 35.5 µM [inhibitor, single point] |

| Structure (SMILES) | Potency |
| --- | --- |
| COc1ccc(NC(=S)Nc2ccc(Oc3ccccc3)cc2)cc1 | inconclusive: 25.1 µM [inhibitor, partial curve] |
| COc1cccc(CN2CCNC(=O)C2CC(=O)NCCCC2CCCC2)c1OC (stereo not given) | inconclusive: 31.6 µM [inhibitor, partial curve] |
| O=C(Cc1ccc(Br)cc1)OCC(=O)c1ccc2c(c1)OCCO2 | inconclusive: 3.55 µM [inhibitor, full curve] |
| COc1cccc(CN2CCSCC2)c1 | inconclusive: 25.1 µM [inhibitor, partial curve] |
| O=C(CC1CCCC1)Nc1ccc2c(c1)CCC2 | inconclusive: 28.2 µM [inhibitor, partial curve] |
| Cc1ccc(Cn2c(O)c(N=O)c3ccccc32)cc1 | inconclusive: 28.2 µM [inhibitor, partial curve] |
| CC(=O)c1ccc(C(=O)N2CCCC(Nc3ccc(C(C)C)cc3)C2)s1 (stereo not given) | inconclusive: 31.6 µM [inhibitor, partial curve] |
| C=CCn1c(CNC(=O)c2cccs2)nnc1SCC(=O)c1ccc(Br)cc1 | inconclusive: 35.5 µM [inhibitor, partial curve] |
| O=C(Nc1nnc(SCc2ccc(F)cc2)s1)c1ccco1 | inconclusive: 20 µM [inhibitor, partial curve] |
| Cc1cc(C)c(C#N)c(N2CCOCC2)n1 | inactive |
| CC(C)C[C@H](NC(=O)c1nc[nH]c1C(=O)N(C)Cc1ccccc1)C(=O)OC(C)(C)C | inconclusive: 35.5 µM [inhibitor, single point] |
| COCc1nc(-c2ccc(-c3ccc(C)cc3)nc2OC)no1 | inconclusive: 50.1 µM [inhibitor, single point] |
| CC1CCCCN1C(=O)COC(=O)/C=C/c1ccc2ccccc2n1 (stereo not given) | inconclusive: 56.2 µM [inhibitor, single point] |
| CCCc1cc(=O)oc2c3c(cc(OCC(=O)N[C@@H](CSC)C(=O)O)c12)OC(C)(C)CC3 | inactive |
| CCN(CC)S(=O)(=O)c1ccc(C(=O)NCc2ccc(C)cc2)cc1 | inconclusive: 22.4 µM [inhibitor, partial curve] |
| CCOc1ccc(NC(=O)CSC2=Nc3ccccc3C3=NC(CCC(=O)NCc4cccs4)C(=O)N23)cc1 (stereo not given) | inconclusive: 14.1 µM [inhibitor, partial curve] |
| CC(C)Cc1nc2oc3c(NCc4cccnc4)ncnc3c2c2c1CCC2 | inactive |
| COc1cc(CNCCSc2nnnn2C)ccc1OCc1ccc(F)cc1 | inconclusive: 39.8 µM [inhibitor, single point] |
| O=C(Nc1ccccc1C(F)(F)F)c1cc(-c2ccc(O)cc2)on1 | inconclusive: 25.1 µM [inhibitor, partial curve] |
| CSc1nc(C(=O)N2CCCC(Nc3ccc(C)c(C)c3)C2)cs1 (stereo not given) | inconclusive: 12.6 µM [inhibitor, partial curve] |
| Cc1cc(C(F)F)n2nc(C(=O)Nc3ccc(S(=O)(=O)NC45CC6CC(CC(C6)C4)C5)cc3)nc2n1 | inconclusive: 17.8 µM [inhibitor, partial curve] |
| Cc1cccc(Nc2nc3ccccc3s2)c1C | inconclusive: 39.8 µM [inhibitor, partial curve] |

| Structure (SMILES) | Potency |
| --- | --- |
| CS(=O)(=O)c1ccc(Cl)c(NC(=O)COC(=O)c2cccc(S(=O)(=O)N3CCCCC3)c2)c1 | inconclusive: 15.8 µM [inhibitor, partial curve, poor fit] |
| CC1(c2cnc(Nc3ccccc3)s2)CCC(=O)O1 (stereo not given) | inconclusive: 35.5 µM [inhibitor, partial curve] |
| CCn1c(SCC(=O)c2cccs2)nnc1-c1ccco1 | inconclusive: 39.8 µM [inhibitor, partial curve] |
| Cc1ccccc1CSc1nnc(NC(=O)C2COc3ccccc3O2)s1 (stereo not given) | inconclusive: 5.01 µM [inhibitor, full curve] |
| CCN(CC)CCC(c1cc(OC)c(OC)c(OC)c1)c1c(OC)cc(OC)c2c(-c3ccccc3)cc(=O)oc12 (stereo not given) | inconclusive: 14.1 µM [inhibitor, partial curve] |
| N#CC1(NC(=O)COC(=O)/C=C/c2ccc3ccccc3n2)CCCCC1 | inconclusive: 50.1 µM [inhibitor, single point] |
| Cc1cc(C)n(CC(=O)N2c3ccccc3Sc3ccc(C(F)(F)F)cc32)n1 | inconclusive: 28.2 µM [inhibitor, single point] |
| Cn1c(=O)[nH]c(=O)c2c1nc(Br)n2CCCCSc1nc2ccccc2o1 | inconclusive: 25.1 µM [inhibitor, partial curve] |
| Cc1c(C#N)c(O)n(CCO)c(=O)c1N=Nc1ccc2c(c1)COC2=O | inconclusive: 28.2 µM [inhibitor, partial curve] |
| Cc1csc(NC(=O)CSc2ncnc3c2cnn3-c2ccccc2Cl)n1 | inconclusive: 31.6 µM [inhibitor, partial curve] |
| Cc1cc(C)cc(-n2c(C)cc(/C=N/NC(=O)c3cccc([N+](=O)[O-])c3C)c2C)c1 | inconclusive: 22.4 µM [inhibitor, partial curve] |
| C=CCNC(=O)C1=NN(c2c(F)c(F)cc(F)c2F)C(=O)CC1 | inactive |
| CCN(c1cccc(C)c1)S(=O)(=O)c1ccc(-c2cc(C)no2)s1 | inconclusive: 25.1 µM [inhibitor, partial curve] |
| CNc1cc(-n2nc(C)cc2-c2ccccc2)ncn1 | inactive |
| O=[N+]([O-])c1cccnc1NCCNc1ncc(C(F)(F)F)cc1Cl | inconclusive: 39.8 µM [inhibitor, partial curve] |
| O=C(COC(=O)C1CCN(c2ccc(C(F)(F)F)cn2)CC1)Nc1ccc(Cl)cn1 | inconclusive: 11.2 µM [inhibitor, partial curve] |
| Cc1ccc(S(=O)(=O)N2N=C3CCCCC3C2(O)C(F)(F)F)cc1 (stereo not given) | inconclusive: 31.6 µM [inhibitor, single point] |
| COc1ccc(C(=O)NC(=S)Nc2ccc(CN3CCOCC3)cc2)cc1OC | inactive |
| COc1ccc(C(=O)NCc2ccc3c(c2)cc(C)n3C)cc1 | inactive |
| CC1CCN(CCOc2cccc(Br)c2)CC1 | inactive |
| Cc1cccc(C)c1NC(=O)C(=O)NCC(c1cccnc1)N1CCc2ccccc21 (stereo not given) | inactive |
